# Data as given in the supplement of paper PMC9446081.
# Out of some 39,000 compounds screened, about 220 (0.56%) showed activity. Some of the results follow.
# Tested on: Escherichia coli K-12 BW25113
# Test: relative growth (OD600 normalised to plate interquartile mean) (fraction); higher = less growth inhibition, active = 0.2 or less
# Details: 50 µM; LB; incubation time: overnight (16-24 h)
# 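Note: static incubation at 37 °C against the wild-type strain, values averaged over two biological replicates.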
row,SMILES,relative growth
1,C[C@@H]1CN([C@H](C)CO)C(=O)c2cccc(NS(=O)(=O)c3ccc(Cl)cc3)c2O[C@@H]1CN(C)Cc1ccc(C(F)(F)F)cc1,inactive: 1.02
2,CNC[C@@H]1Oc2cc(C#CCN(C)C)ccc2S(=O)(=O)N([C@@H](C)CO)C[C@@H]1C,inactive: 0.98
3,CC(=O)NC(CCC(N)=O)C(=O)O (stereo not given),inactive: 0.982
4,C[C@H]1CN([C@@H](C)CO)C(=O)c2cc(NS(=O)(=O)c3cccs3)ccc2O[C@@H]1CN(C)C(=O)Nc1cccc2ccccc12,inactive: 0.999
5,C[C@@H]1CCCCO[C@H](CN(C)C(=O)C2CCCCC2)[C@@H](C)CN([C@H](C)CO)C(=O)c2cc(NS(=O)(=O)c3ccc(Cl)cc3)ccc2O1,inactive: 1
6,C[C@@H]1CN([C@H](C)CO)C(=O)CCCn2cc(nn2)CO[C@@H]1CN(C)S(=O)(=O)c1cccc(C#N)c1,inactive: 0.896
7,COc1ccc(S(=O)(=O)N(C)C[C@H]2Oc3c(NC(=O)c4ccncc4)cccc3C(=O)N([C@H](C)CO)C[C@H]2C)cc1,inactive: 0.986
8,C[C@@H]1CCCCO[C@@H](CN(C)C(=O)Nc2ccc(F)cc2)[C@@H](C)CN([C@H](C)CO)C(=O)c2cc(NC(=O)Nc3cccc4ccccc34)ccc2O1,inactive: 1.02
9,COc1ccc(CNC(=O)C[C@@H]2C[C@H]3c4cc(NC(=O)NC5CCCC5)ccc4O[C@H]3[C@H](CO)O2)cc1,inactive: 0.972
10,C[C@@H]1CN([C@H](C)CO)C(=O)c2c(c3ccccc3n2C)-c2ccccc2CO[C@@H]1CN(C)C(=O)Nc1ccccc1C(F)(F)F,inactive: 0.971
11,C[C@H]1CN([C@@H](C)CO)C(=O)c2cccc(NC(=O)CCCCCC(=O)Nc3ccccc3N)c2O[C@@H]1CN(C)Cc1ccc(Cl)c(Cl)c1,inactive: 1.02
12,C[C@H](CO)N1C[C@H](C)[C@@H](CN(C)C(=O)C2CCOCC2)Oc2ncc(/C=C/c3ccccc3)cc2C1=O,inactive: 0.964
13,C[C@H](CO)N1C[C@H](C)[C@H](CN(C)Cc2ccncc2)Oc2ncc(C#Cc3ccc(F)cc3)cc2C1=O,inactive: 0.981
14,COc1ccc(NC(=O)Nc2ccc3c(c2)CC(=O)N([C@H](C)CO)C[C@@H](C)[C@@H](CN(C)Cc2ccc(C(=O)Nc4ccccc4N)cc2)O3)cc1,inactive: 0.969
15,C[C@@H]1CCCCO[C@@H](CN(C)Cc2ccc(C(=O)O)cc2)[C@@H](C)CN([C@H](C)CO)C(=O)c2cc(NS(=O)(=O)c3ccc(F)cc3)ccc2O1,inactive: 1.02
16,C[C@H]1CN([C@@H](C)CO)C(=O)c2cc(NC(=O)Nc3cccc4ccccc34)ccc2O[C@@H]1CN(C)Cc1ccc(Cl)c(Cl)c1,inactive: 1.02
17,Cc1noc(C)c1NC(=O)N(C)C[C@H]1Oc2ccc(NS(C)(=O)=O)cc2C(=O)N([C@H](C)CO)C[C@H]1C,inactive: 1.02
18,C[C@@H]1CN([C@@H](C)CO)C(=O)c2cccc(NS(C)(=O)=O)c2O[C@H]1CN(C)Cc1ccc2c(c1)OCO2,inactive: 0.957

row,SMILES,relative growth
1,CC(C)(C)c1ccc2c(c1)O[C@H](C(=O)N/N=C/c1ccc[nH]1)CO2.CC(C)(C)c1ccc2c(c1)O[C@H](C(=O)N/N=C\c1ccc[nH]1)CO2,inactive: 1
2,CN(C)C(=O)C[C@@H]1CC[C@@H]2[C@H](COC[C@H](O)CN2S(=O)(=O)c2ccccc2)O1,inactive: 1.02
3,COCC(=O)Nc1ccc2c(c1)OC[C@@H](C)N(C(=O)Cc1cccnc1)C[C@H](C)[C@H](OC)CN(C)C2=O,inactive: 1
4,COc1ccc(S(=O)(=O)Nc2ccc3c(c2)C(=O)N([C@@H](C)CO)C[C@H](C)[C@@H](CN(C)C(=O)C2CCCCC2)OCCCC[C@@H](C)O3)cc1,inactive: 0.999
5,COc1ccc(CN(C)C[C@H]2Oc3c(NC(=O)Nc4ccc(C(F)(F)F)cc4)cccc3C(=O)N([C@@H](C)CO)C[C@@H]2C)cc1,inactive: 0.761
6,C[C@H]1CN([C@@H](C)CO)C(=O)c2cccc(NC(=O)Nc3ccc(C(F)(F)F)cc3)c2O[C@@H]1CN(C)C(=O)Nc1ccc2c(c1)OCO2,inactive: 0.911
7,O=c1c(-c2ccc(O)cc2)coc2c([C@@H]3O[C@H](CO)[C@@H](O)[C@H](O)[C@H]3O)c(O)ccc12,inactive: 0.992
8,Cc1ccc(S(=O)(=O)C[C@H]2O[C@@H](n3cc(I)c(=O)[nH]c3=O)C[C@@H]2O)cc1,inactive: 0.995
9,C[C@@H]1CCCCO[C@@H](CN(C)S(=O)(=O)c2ccc(Cl)cc2)[C@H](C)CN([C@@H](C)CO)C(=O)c2cc(NS(=O)(=O)c3cccs3)ccc2O1,inactive: 1.05
10,C[C@@H]1CN([C@H](C)CO)C(=O)c2cc(NS(=O)(=O)c3cn(C)cn3)ccc2O[C@@H](C)CCCCO[C@H]1CN(C)S(=O)(=O)c1cn(C)cn1,inactive: 0.983
11,COc1ccc(S(=O)(=O)N(C)C[C@H]2Oc3ccc(NC(=O)CCN4CCOCC4)cc3CC(=O)N([C@@H](C)CO)C[C@@H]2C)cc1,inactive: 1.01
12,C[C@H]1CN([C@@H](C)CO)C(=O)c2cc(NC(=O)C3CC3)ccc2O[C@@H]1CN(C)S(=O)(=O)c1ccc(F)cc1,inactive: 1
13,COc1ccc(S(=O)(=O)Nc2ccc3c(c2)C(=O)N([C@@H](C)CO)C[C@@H](C)[C@@H](CN(C)C(=O)NC(C)C)O3)cc1,inactive: 0.967
14,C=CCNC(=O)[C@@H]1[C@H]2C(=O)O[C@H](c3ccccc3)[C@H](c3ccccc3)N2[C@H](c2ccccc2OCCO)[C@@]12C(=O)N(C(=O)OCCOC)c1ccc(C#Cc3ccc(OC)cc3)cc12,inactive: 1.07
15,C[C@@H]1CN([C@@H](C)CO)C(=O)c2cc(NC(=O)c3ccncc3)ccc2O[C@@H](C)CCCCO[C@H]1CN(C)C(=O)Nc1cccc2ccccc12,inactive: 0.985
16,CC(C)NC(=O)Nc1ccc2c(c1)CC(=O)N([C@H](C)CO)C[C@@H](C)[C@H](CN(C)S(=O)(=O)c1ccc(F)cc1)O2,inactive: 0.979
17,Cc1ccc(S(=O)(=O)N(C)C[C@@H]2OCCCC[C@H](C)Oc3ccc(NC(=O)CCC(F)(F)F)cc3C(=O)N([C@@H](C)CO)C[C@@H]2C)cc1,inactive: 0.991
